Structures can show the parent of a compound that is named as a salt. ± gives the standard deviation of the averaged measurements. The full ranking holds about 2,600 compounds; the median of “MBP+ mature oligodendrocyte number relative to DMSO vehicle control” is about -0.34, and the highest 2% start at about 13. This is one part of the list.
These molecules were tested on jimpy (Plp1 jimpy) mouse iPSC-derived oligodendrocyte progenitor cells (assay: MBP+ mature oligodendrocyte number relative to DMSO vehicle control (SDs above negative control mean); higher = more surviving jimpy oligodendrocytes (rescue)). Details: 10 µM; 3 days.
Protocol: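 Primary phenotypic screen of >3,000 bioactive compounds (Selleck L1700 and Sigma LO1280 libraries) at a single dose of 10 µM. Compounds were added to jimpy (Plp1 mutant) mouse iPSC-derived OPCs at the start of thyroid hormone-induced oligodendrocyte differentiation, one well per compound in 384-well plates. After 3 days cells were stained for MBP, Sox10 and DAPI and imaged with an Operetta system. MBP+ oligodendrocyte number and total cell number were expressed as the number of SDs above the mean of the DMSO negative control on the same plate (n=16 control wells per plate). Hits were defined as >=4 SD for oligodendrocytes and >=2 SD for total cells.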

Compound	MBP+ mature oligodendrocyte number
CN(C)c1cc2c(Nc3ccc4c(cnn4Cc4ccccc4)c3)ncnc2cn1	-3.58
COc1ccc([C@H]2CNC(=O)C2)cc1OC1CCCC1 [S- (+)-Rolipram]	0.395
NC(=O)C(=O)O [Sodium Oxamate]	-1.23
COc1cc(Cc2cnc(N)nc2N)cc(OC)c1OC [Trimethoprim]	1.04 ± 0.36
COc1cc2c(cc1OC)CN(CCc1ccc(NC(=O)c3cc(OC)c(OC)cc3NC(=O)c3cnc4ccccc4c3)cc1)CC2 [Tariquidar]	-3.56
COc1ccc(S(=O)(=O)Nc2nc(-c3cccc([N+](=O)[O-])c3)cs2)cc1OC	-0.598
C[C@@H](Oc1cc(-n2cnc3ccc(CN4CCN(C)CC4)cc32)sc1C(N)=O)c1ccccc1C(F)(F)F	< -4.81
CNCC[C@H](Oc1cccc2ccccc12)c1cccs1 [Duloxetine HCl]	< -5.15
CC1(COc2ccc3c(c2)ncn3-c2ccc3cccc(N4CCC(N)CC4)c3n2)COC1	< -6.01
N#CC(=C(/N)Sc1ccccc1N)/C(C#N)=C(/N)Sc1ccccc1N	-1.85
NS(=O)(=O)c1cccc2c1c([N+](=O)[O-])cc1nc(O)c(O)nc12 [NBQX disodium]	-0.911
NC(N)=NCc1cccc(I)c1 [m-Iodobenzylguanidine hemisulfate]	16.6
Cc1cccc(C)c1NC(=O)C1CCCCN1C (configuration not stated) [Mepivacaine HCl]	3.04
CCc1nc(-c2cccc(C)c2)c(-c2ccnc(NC(=O)c3ccccc3)c2)s1	-2.44
COc1cc(/C=C/C(=O)N2CCC=CC2=O)cc(OC)c1OC [Piperlongumine]	< -3.97
N#Cc1ccc2[nH]cc(CCCCN3CCN(c4ccc5oc(C(N)=O)cc5c4)CC3)c2c1 [Vilazodone HCl]	-0.269
CN1C(C(=O)Nc2ccccn2)=C(O)c2sccc2S1(=O)=O [Tenoxicam]	-0.164
Cc1ncc([N+](=O)[O-])n1CC(O)CCl (configuration not stated) [Ornidazole]	2.41
N=C(N)N [Guanidine HCl]	3.87
O=C1CCC(N2C(=O)c3ccccc3C2=O)C(=O)N1 (racemic) [Thalidomide]	2.47
O=C1CCC(N2C(=O)c3ccccc3C2=O)C(=O)N1 (racemic) [(±)-Thalidomide]	0.00298

Compound	MBP+ mature oligodendrocyte number
CNC(=O)[C@H]1O[C@@H](n2cnc3c(NCc4cccc(I)c4)ncnc32)[C@H](O)[C@@H]1O	0.0294
C=C[C@H]1CN2CC[C@H]1C[C@@H]2[C@@H](O)c1ccnc2ccc(OC)cc12 [Quinidine sulfate]	-0.747
Cn1c(=O)c2[nH]cnc2n(C)c1=O [Aminophylline]	-2.18
Cn1c(=O)c2[nH]cnc2n(C)c1=O [Aminophylline ethylenediamine]	-0.511
CS(=O)(=O)c1ccc(C2=C(c3ccccc3)C(=O)OC2)cc1 [Rofecoxib]	-0.184 ± 2.6
CC(=O)c1cc([N+](=O)[O-])c(Sc2cccc(Cl)c2Cl)s1	-6.1
CN(C)CCC=C1c2ccccc2CCc2ccccc21 [Amitriptyline hydrochloride]	-2.91
CN(C)CCC=C1c2ccccc2CCc2ccccc21 [Amitriptyline HCl]	-4.98
Cc1ccnc2c1NC(=O)c1cccnc1N2C1CC1 [Nevirapine]	-1.1
Cc1[nH]c(=O)c(C#N)cc1-c1ccncc1 [Milrinone]	-0.44 ± 0.72
O=C(Nc1ccccc1)c1ccccc1O [Salicylanilide]	3.03
COc1ccc(C(=O)Nc2sc3c(c2C(N)=O)CCCC3)cc1OC	0.753
O=NO [Sodium Nitrite]	3.11
N[C@@H](Cn1ccc(=O)c(O)c1)C(=O)O [L-Mimosine from Koa hoale seeds]	-0.747
COc1cc(Nc2ncc(F)c(Nc3ccc4c(n3)NC(=O)C(C)(C)O4)n2)cc(OC)c1OC [R406 (free base)]	-4.7
COc1cc(Nc2ncc(F)c(Nc3ccc4c(n3)NC(=O)C(C)(C)O4)n2)cc(OC)c1OC	-3.63
CC(C)(Oc1ccc(Cl)cc1)C(=O)O [Clofibric Acid]	2.94
CC(=O)[C@@]1(O)CC[C@H]2[C@@H]3CCC4=CC(=O)CCC4=C3[C@@H](c3ccc(N(C)C)cc3)C[C@@]21C [Ulipristal]	-1.01
COc1cc2ncc(-c3ccccc3)nc2cc1OC [Tyrphostin AG 1296]	0.992
CS(=O)(=O)c1cccc(CNc2nc(Nc3ccc4c(c3)CCC(=O)N4)ncc2C(F)(F)F)c1	-4.54 ± 0.86
CCCCCCCCCCC[C@@H](C[C@@H]1OC(=O)[C@H]1CCCCCC)OC(=O)[C@H](CC(C)C)NC=O [Orlistat]	0.163

Reference: the supplement of paper PMC6135742
